Experimental data from the antibiotic and cytotoxicity screens of Wong et al. (2023).
This is one part of the list.

Tested on: HepG2
Assay: cytotoxicity call (relative viability < 0.9)
Details: 10 µM

Compound	cytotoxicity call
COc1cc(CO)cc(I)c1O[C@H]1C=C(C(=O)NCCO)C[C@@H](NC[C@@H]2CCCO2)[C@@H]1O	inactive
CC(=O)N1CCC(N)CC1	inactive
COc1ccc(CNC(=O)c2cc3c(c(-c4cccc(-c5ccc(C#N)cc5)c4)n2)[C@H](CCO)N([S@@](=O)C(C)(C)C)C3)cc1	inactive
COc1cc(OC)cc(C(=O)OCCN2CCCN(CCOC(=O)c3cc(OC)cc(OC)c3)CC2)c1	inactive
COc1ccc(-c2csc(C(C#N)=C3CCCCC3)n2)cc1	inactive
C[C@@H]1CN([C@H](C)CO)C(=O)c2cc(NC(=O)CCC(F)(F)F)ccc2O[C@H]1CN(C)S(=O)(=O)c1cn(C)cn1	inactive
C[C@@H]1CN([C@@H](C)CO)C(=O)Cc2cc(NC(=O)CCC(F)(F)F)ccc2O[C@@H]1CN(C)S(C)(=O)=O	inactive
CC(=O)Nc1c(C)[nH]c2ncnn2c1=O	active
C[C@@H]1CN([C@@H](C)CO)C(=O)c2cc(NS(C)(=O)=O)ccc2O[C@@H](C)CCCCO[C@@H]1CN(C)S(=O)(=O)c1ccc(F)cc1	inactive
Cn1nccc1-c1cccc(CN)c1	inactive
O=C(C[C@H]1CC[C@@H](NC(=O)Nc2ccc3c(c2)OCO3)[C@H](CO)O1)NCCCN1CCOCC1	inactive
Oc1cc(O)cc(O)c1	inactive
C[C@@H]1CN([C@@H](C)CO)C(=O)CCCn2cc(nn2)CO[C@@H]1CN(C)S(=O)(=O)c1ccc(Cl)cc1	inactive
NCc1cccc(-c2nccs2)c1	inactive
CCO[C@H]1OC(C(=O)N2CCN(Cc3ccccc3)CC2)=C[C@@H](c2csc3ccccc23)[C@@H]1CCCOC(=O)NCCCCCC(=O)NO	inactive
O=C(c1cccs1)N1c2ccccc2Sc2ccccc21	inactive
C[C@H]1CN([C@@H](C)CO)C(=O)c2ccccc2-c2ccccc2CO[C@H]1CN(C)C(=O)Nc1cccc(Cl)c1Cl	inactive
NCc1nc(-c2ccccc2)no1	inactive
Cc1ccc(S(=O)(=O)Nc2ccc3c(c2)C(=O)N([C@H](C)CO)C[C@H](C)[C@H](CN(C)C(=O)Cc2ccccc2)OCCCC[C@@H](C)O3)cc1	inactive
NC[C@H]1CN(Cc2ccc(F)cc2)CCO1	inactive

Compound	cytotoxicity call
C[C@H]1CN([C@@H](C)CO)S(=O)(=O)c2ccc(C#Cc3cccc(F)c3)cc2O[C@H]1CN(C)CC1CC1	inactive
CN(C)C(=O)C[C@H]1CC[C@@H](NC(=O)C2CC2)[C@H](CO)O1	inactive
C[C@H]1CCCCO[C@H](CN(C)S(C)(=O)=O)[C@@H](C)CN([C@@H](C)CO)C(=O)c2cc(N(C)C)ccc2O1	inactive
COc1ccc(S(=O)(=O)Nc2cccc3c2O[C@@H](CN(C)Cc2ccc(Cl)c(Cl)c2)[C@H](C)CN([C@H](C)CO)C3=O)cc1	inactive
CC#CCO[Si](C#CCCCCCC)(C(C)C)C(C)C	inactive
C[C@]1(C(=O)NCC(F)(F)F)c2ccccc2C(=O)N(Cc2cc(C(F)(F)F)cc(C(F)(F)F)c2)[C@H]1c1ccc(CO)cc1	inactive
C[C@H](CO)N1C[C@H](C)[C@H](CN(C)S(=O)(=O)c2ccc(F)cc2)Oc2ccc(NS(=O)(=O)c3cn(C)cn3)cc2C1=O	inactive
C[C@H]1CN([C@@H](C)CO)C(=O)Cc2cc(NC(=O)Nc3ccc(F)cc3)ccc2O[C@H]1CN(C)Cc1ccc(Cl)c(Cl)c1	active
C[C@@H]1CCCCO[C@H](CN(C)S(=O)(=O)c2cccs2)[C@@H](C)CN([C@@H](C)CO)C(=O)c2cc(NC(=O)Nc3ccc4c(c3)OCO4)ccc2O1	inactive
C[C@H]1CN([C@@H](C)CO)C(=O)c2cc(NS(=O)(=O)c3cccs3)ccc2O[C@H]1CN(C)S(C)(=O)=O	inactive
COc1ccc(NC(=O)Nc2cccc3c2O[C@H](CN(C)C(=O)Nc2cccc4ccccc24)[C@@H](C)CN([C@H](C)CO)C3=O)cc1	inactive
Cc1ccc(S(=O)(=O)Nc2ccc3c(c2)C(=O)N([C@H](C)CO)C[C@H](C)[C@@H](CN(C)C(=O)Nc2c(C)noc2C)OCCCC[C@@H](C)O3)cc1	inactive
Nc1nc2nc[nH]c2c(=S)[nH]1	inactive
CO[C@@H]1CN(C)C(=O)c2cc(NC(=O)Nc3ccccc3)ccc2OC[C@@H](C)N(C(=O)CN(C)C)C[C@H]1C	inactive
C[C@@H]1CN([C@H](C)CO)C(=O)c2cccc(NC(=O)Nc3ccc(F)cc3)c2O[C@H]1CN(C)S(=O)(=O)c1cn(C)cn1	inactive
O=c1cc(-c2ccccc2)ss1	inactive
C[C@H](CO)N1C[C@H](C)[C@H](CN(C)C(=O)Nc2ccc(F)cc2)Oc2c(NC(=O)c3cnccn3)cccc2C1=O	inactive
COc1cccc(C#Cc2ccc3c(c2)O[C@H](CN(C)S(=O)(=O)c2ccccc2F)[C@@H](C)CN([C@@H](C)CO)S3(=O)=O)c1	inactive
C[C@@H]1CN([C@@H](C)CO)C(=O)c2cccc(NS(=O)(=O)c3cn(C)cn3)c2O[C@@H]1CN(C)CC1CCCCC1	inactive
COc1ccccc1CN1C[C@@H](C)[C@H](OC)CN(C)C(=O)c2ccc(NC(=O)Nc3ccccc3OC)cc2OC[C@H]1C	inactive
